Results as given in article PMC6395948 (Molecular Cell, 2019).

Molecular target: T1, McbB (Escherichia coli, UniProt P23184 1-295)
T1 sequence: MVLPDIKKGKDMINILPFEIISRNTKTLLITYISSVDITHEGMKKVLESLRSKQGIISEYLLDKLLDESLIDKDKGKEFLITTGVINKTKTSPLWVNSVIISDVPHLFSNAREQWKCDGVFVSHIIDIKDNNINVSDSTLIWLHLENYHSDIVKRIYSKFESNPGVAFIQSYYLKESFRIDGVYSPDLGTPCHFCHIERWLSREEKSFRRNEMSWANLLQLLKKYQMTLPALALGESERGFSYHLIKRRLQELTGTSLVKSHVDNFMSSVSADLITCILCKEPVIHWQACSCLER
Experiment: crystal structure

B1: McbC (enzyme, Escherichia coli)
chain: MSKHELSLVEVTHYTDPEVLAIVKDFHVRGNFASLPEFAERTFVSAVPLAHLEKFENKEVLFRPGFSSVINISSSHNFSRERLPSGINFCDKNKLSIRTIEKLLVNAFSSPDPGSVRRPYPSGGALYPIEVFLCRLSENTENWQAGTNVYHYLPLSQALEPVATCNTQSLYRSLSGGDSERLGKPHFALVYCIIFEKALFKYRYRGYRMALMETGSMYQNAVLVADQIGLKNRVWAGYTDSYVAKTMNLDQRTVAPLIVQFFGDVNDDKCLQ
  binding result: binds
